Experimental data published in PMC4336329 (PLoS ONE, 2015).
In all, about 310,000 compounds went through this assay and about 14,000 (4.5%) showed an effect of 50% or more. The effect is printed as a negative number. The list shows a part of the results.

Molecular target: human ether-à-go-go-related gene (hERG) potassium channel (human, UniProt Q12809)
Experiment: primary screen, population patch clamp on CHO cells stably expressing hERG
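Further: peak tail current of the secondary pulse compared with the same well before compound.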

Sequence of human ether-à-go-go-related gene (hERG) potassium channel (Q12809 whole entry, looked up): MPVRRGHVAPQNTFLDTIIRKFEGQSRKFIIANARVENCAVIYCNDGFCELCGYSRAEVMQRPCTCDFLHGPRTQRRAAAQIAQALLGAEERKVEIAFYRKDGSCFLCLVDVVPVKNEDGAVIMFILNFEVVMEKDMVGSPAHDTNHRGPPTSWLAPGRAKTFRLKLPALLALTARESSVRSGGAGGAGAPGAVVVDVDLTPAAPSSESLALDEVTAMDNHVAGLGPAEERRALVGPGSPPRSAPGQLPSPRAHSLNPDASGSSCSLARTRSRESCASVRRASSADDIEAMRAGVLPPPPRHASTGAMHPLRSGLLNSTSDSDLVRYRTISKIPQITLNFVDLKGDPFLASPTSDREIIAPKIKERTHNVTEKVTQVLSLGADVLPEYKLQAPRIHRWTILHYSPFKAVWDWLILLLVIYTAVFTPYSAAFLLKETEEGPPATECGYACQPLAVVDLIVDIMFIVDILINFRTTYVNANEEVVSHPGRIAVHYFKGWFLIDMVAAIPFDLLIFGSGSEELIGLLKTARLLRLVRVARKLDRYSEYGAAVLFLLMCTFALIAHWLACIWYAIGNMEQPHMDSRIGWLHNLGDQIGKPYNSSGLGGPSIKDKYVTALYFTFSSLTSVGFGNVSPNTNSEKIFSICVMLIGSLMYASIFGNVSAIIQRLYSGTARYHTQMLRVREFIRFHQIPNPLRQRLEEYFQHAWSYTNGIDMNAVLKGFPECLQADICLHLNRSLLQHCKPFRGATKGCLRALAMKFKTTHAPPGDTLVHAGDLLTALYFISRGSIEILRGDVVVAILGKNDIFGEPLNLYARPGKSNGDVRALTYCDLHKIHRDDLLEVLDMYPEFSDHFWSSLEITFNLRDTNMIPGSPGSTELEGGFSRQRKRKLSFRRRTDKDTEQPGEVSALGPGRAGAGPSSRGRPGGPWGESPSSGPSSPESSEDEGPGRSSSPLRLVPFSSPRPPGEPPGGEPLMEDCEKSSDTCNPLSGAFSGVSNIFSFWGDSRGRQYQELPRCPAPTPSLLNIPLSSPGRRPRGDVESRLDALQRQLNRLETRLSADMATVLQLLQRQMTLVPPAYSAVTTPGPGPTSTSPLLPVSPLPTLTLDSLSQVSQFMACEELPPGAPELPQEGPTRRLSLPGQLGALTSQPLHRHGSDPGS

Going from Cc1ccc(C)c(-n2c(SCC(N)=O)nnc2-c2ccccn2)c1 to COc1ccc(-c2n[nH]c(=S)n2-c2ccccc2C)cc1OC, the “hERG current change (%, negative = inhibition) at 10uM” value falls from 17.2% to 7.74%.

First: Cc1cccc(OCC(=O)Nc2ccc(N3CCN(C(=O)c4ccccc4)CC3)cc2)c1C
Second: O=C(Nc1cccc(OCC(=O)N2CCOCC2)c1)c1cccc([N+](=O)[O-])c1
The “hERG current change (%, negative = inhibition) at 10uM” value of the first is lower: 3.45% for the first, 25.9% for the second.

Compared with CC(C)(C)c1ccc(C(=O)N2CCN(S(=O)(=O)c3ccc(Br)s3)CC2)cc1, O=C(c1ccc(Br)o1)N1CCN(c2ncccn2)CC1 is lower in “hERG current change (%, negative = inhibition) at 10uM” value: 1.21% for the first, 0.956% for the second.

Going from COc1cccc(OCc2cc(/C=N/n3cncn3)ccc2OC)c1 to COc1ccc2c(c1)c1nc3ccccc3nc1n2Cc1ccc(OC)c(OC)c1, the “hERG current change (%, negative = inhibition) at 10uM” value rises from 7.82% to 24.5%.

Going from CC1(C)N=C(N)N=C(N)N1c1cccc(CN)c1.CCS(=O)(=O)O to COc1ccc(CNC(=O)c2cc(=O)c3c(C)cc(C)cc3o2)cc1, the “hERG current change (%, negative = inhibition) at 10uM” value falls from 20.6% to 5.63%.

Compared with O=C1NC(=S)S/C1=C\c1coc2ccccc2c1=O, O=C(O)CSc1nc2ccccc2nc1Cc1ccccc1F is higher in “hERG current change (%, negative = inhibition) at 10uM” value: 5.99% for the first, 17% for the second.

Going from CCN1C(=NCCc2cccnc2)N[C@@H](c2ccccc2)[C@H](C(=O)OC)[C@H]1C to O=C(O)Cc1ccc(NC(=O)c2cnccn2)cc1, the “hERG current change (%, negative = inhibition) at 10uM” value rises from 1.69% to 26.1%.

First: COc1ccc(NC(=O)c2cccc(NC3=NC4CS(=O)(=O)CC4S3)c2)cc1Cl (centres unmarked)
Second: COc1ccccc1NC(=O)COC(=O)CNC(=O)c1ccc(OC)c(OC)c1
The “hERG current change (%, negative = inhibition) at 10uM” value of the first is higher: 8.42% for the first, -0.0486% for the second.

Going from O=C(N/N=C/c1ccc(N2CCOCC2)o1)c1cccc([N+](=O)[O-])c1 to O=C(O)c1ccc2c(c1)C(=O)N(NC(=O)c1ccc(O)cc1)C2=O, the “hERG current change (%, negative = inhibition) at 10uM” value rises from -7.67% to 46.9%.

Going from CCOc1ccc(-c2c(C(=O)N/N=C(\C)c3cccs3)nnn2-c2nonc2N)cc1 to COc1ccc(CNC(=O)CSc2nn3c(=O)c(C(C)(C)C)nnc3s2)cc1OC, the “hERG current change (%, negative = inhibition) at 10uM” value falls from 12.9% to -2.41%.

Compared with Fc1ccccc1N1CCN(C2CCCN(Cc3cccc(C(F)(F)F)c3)C2)CC1 (centres unmarked), COC(=O)C1(C(=O)OC)NOC2C(=O)N(N(C)c3ncc(C(F)(F)F)cc3Cl)C(=O)C21 (centres unmarked) is higher in “hERG current change (%, negative = inhibition) at 10uM” value: -52.1% for the first, 24.1% for the second.

With CN1CCCCC1=NCCCn1cnc2c1c(=O)n(C)c(=O)n2C.Cl the “hERG current change (%, negative = inhibition) at 10uM” value was 9.4%.
